# The other results are listed elsewhere or left out.
# B1: AFL (Aspergillus fumigatus), Q4WW81 (protein)
# chain: STPGAQQVLFRTGIAAVNLTNHLRVYFQDVYGSIRESLYEGSWANGTEKNVIGNAKLGSPVAATSKELKHIRVYTLTEGNTLQEFAYDSGTGWYNGGLGGAKFQVAPYSRIAAVFLAGTDALQLRIYAQKPDNTIQEYMWNGDGWKEGTNLGGALPGTGIGATSFRYTDYNGPSIRIWFQTDDLKLVQRAYDPHKGWYPDLVTIFDRAPPRTAIAATSFGAGNSSIYMRIYFVNSDNTIWQVCWDHGKGYHDKGTITPVIQGSEVAIISWGSFANNGPDLRLYFQNGTYISAVSEWVWNRAHGSQLGRSALPPA
# Columns and labels:
# Experiment in all cases: glycan array binding signal (z-score within array); higher = stronger binding
# Conditions in all cases: glycan notation: IUPAC condensed, linker removed
# [1] = target: Fuc(a1-2)Gal(b1-4)[Fuc(a1-3)]GlcNAc
# Summary of the method: (§1)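 Arrays were curated from the Consortium for Functional Glycomics database, 3228 in total, and kept only where the protein sequence was available. Binding is expressed as a within-array Z-score. This score was averaged across arrays of the same protein sequence at different concentrations or buffers and across linkers, and negative values can be read as non-binding.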
# [2] = target: Fuc(a1-2)Gal(b1-4)[Fuc(a1-3)]GlcNAc(b1-2)Man(a1-3)[Fuc(a1-2)Gal(b1-4)[Fuc(a1-3)]GlcNAc(b1-2)Man(a1-6)]Man(b1-4)GlcNAc(b1-4)GlcNAc
# Summary of the method: as §1
# [3] = target: Fuc(a1-2)Gal(b1-4)[Fuc(a1-3)]GlcNAc(b1-2)[Fuc(a1-2)Gal(b1-4)[Fuc(a1-3)]GlcNAc(b1-4)]Man(a1-3)[Fuc(a1-2)Gal(b1-4)[Fuc(a1-3)]GlcNAc(b1-2)Man(a1-6)]Man(b1-4)GlcNAc(b1-4)GlcNAc
# Summary of the method: as §1
# [4] = target: Fuc(a1-2)Gal(b1-4)[Fuc(a1-3)]GlcNAc(b1-3)Gal(b1-4)[Fuc(a1-3)]GlcNAc
# Summary of the method: as §1
# [5] = target: Fuc(a1-2)Gal(b1-4)[Fuc(a1-3)]GlcNAc(b1-3)Gal(b1-4)[Fuc(a1-3)]GlcNAc(b1-3)Gal(b1-4)[Fuc(a1-3)]GlcNAc
# Summary of the method: as §1
# [6] = target: Fuc(a1-2)Gal(b1-4)[Fuc(a1-3)]GlcNAc(b1-3)GalNAc
# Summary of the method: as §1
# Fuc(a1-2)Gal6S(b1-4)Glc = target: Fuc(a1-2)Gal6S(b1-4)Glc
# Summary of the method: as §1
# [7] = target: Fuc(a1-2)Gal6S(b1-4)Glc6S
# Summary of the method: as §1
# [8] = target: Fuc(a1-2)Gal6S(b1-4)GlcNAc
# Summary of the method: as §1
# Fuc(a1-2)[Gal(a1-3)]Gal = target: Fuc(a1-2)[Gal(a1-3)]Gal
# Summary of the method: as §1
# [9] = target: Fuc(a1-2)[Gal(a1-3)]Gal(b1-3)GalNAc
# Summary of the method: as §1
# [10] = target: Fuc(a1-2)[Gal(a1-3)]Gal(b1-3)GlcNAc
# Summary of the method: as §1
# [11] = target: Fuc(a1-2)[Gal(a1-3)]Gal(b1-3)GlcNAc(b1-2)Man(a1-3)[Fuc(a1-2)[Gal(a1-3)]Gal(b1-3)GlcNAc(b1-2)Man(a1-6)]Man(b1-4)GlcNAc(b1-4)GlcNAc
# Summary of the method: as §1
# [12] = target: Fuc(a1-2)[Gal(a1-3)]Gal(b1-3)GlcNAc(b1-2)Man(a1-3)[Fuc(a1-2)[Gal(a1-3)]Gal(b1-3)GlcNAc(b1-2)Man(a1-6)]Man(b1-4)GlcNAc(b1-4)[Fuc(a1-6)]GlcNAc
# Summary of the method: as §1
# [13] = target: Fuc(a1-2)[Gal(a1-3)]Gal(b1-3)GlcNAc(b1-3)GalNAc
# Summary of the method: as §1
# [14] = target: Fuc(a1-2)[Gal(a1-3)]Gal(b1-4)Glc
# Summary of the method: as §1
# [15] = target: Fuc(a1-2)[Gal(a1-3)]Gal(b1-4)GlcNAc
# Summary of the method: as §1
# [16] = target: Fuc(a1-2)[Gal(a1-3)]Gal(b1-4)GlcNAc(b1-2)Man(a1-3)[Fuc(a1-2)[Gal(a1-3)]Gal(b1-4)GlcNAc(b1-2)Man(a1-6)]Man(b1-4)GlcNAc(b1-4)GlcNAc
# Summary of the method: as §1
# [17] = target: Fuc(a1-2)[Gal(a1-3)]Gal(b1-4)GlcNAc(b1-2)Man(a1-3)[Fuc(a1-2)[Gal(a1-3)]Gal(b1-4)GlcNAc(b1-2)Man(a1-6)]Man(b1-4)GlcNAc(b1-4)[Fuc(a1-6)]GlcNAc
# Summary of the method: as §1
# [18] = target: Fuc(a1-2)[Gal(a1-3)]Gal(b1-4)GlcNAc(b1-3)GalNAc
# Summary of the method: as §1
# [19] = target: Fuc(a1-2)[Gal(a1-3)]Gal(b1-4)[Fuc(a1-3)]Glc
# Summary of the method: as §1
# [20] = target: Fuc(a1-2)[Gal(a1-3)]Gal(b1-4)[Fuc(a1-3)]GlcNAc
# Summary of the method: as §1
# [21] = target: Fuc(a1-2)[Gal(a1-3)]Gal(b1-4)[Fuc(a1-3)]GlcNAc(b1-3)GalNAc
# Summary of the method: as §1
# [22] = target: Fuc(a1-2)[Gal(a1-4)]Gal(b1-4)GlcNAc
# Summary of the method: as §1
# [23] = target: Fuc(a1-2)[GalNAc(a1-3)]Gal
# Summary of the method: as §1
# [24] = target: Fuc(a1-2)[GalNAc(a1-3)]Gal(b1-3)GalNAc(a1-3)[Fuc(a1-2)]Gal(b1-4)GlcNAc
# Summary of the method: as §1
# [25] = target: Fuc(a1-2)[GalNAc(a1-3)]Gal(b1-3)GlcNAc
# Summary of the method: as §1
# [26] = target: Fuc(a1-2)[GalNAc(a1-3)]Gal(b1-3)GlcNAc(b1-2)Man(a1-3)[Fuc(a1-2)[GalNAc(a1-3)]Gal(b1-3)GlcNAc(b1-2)Man(a1-6)]Man(b1-4)GlcNAc(b1-4)GlcNAc
# Summary of the method: as §1
# [27] = target: Fuc(a1-2)[GalNAc(a1-3)]Gal(b1-3)GlcNAc(b1-2)Man(a1-3)[Fuc(a1-2)[GalNAc(a1-3)]Gal(b1-3)GlcNAc(b1-2)Man(a1-6)]Man(b1-4)GlcNAc(b1-4)[Fuc(a1-6)]GlcNAc
# Summary of the method: as §1
# [28] = target: Fuc(a1-2)[GalNAc(a1-3)]Gal(b1-3)GlcNAc(b1-3)GalNAc
# Summary of the method: as §1
# [29] = target: Fuc(a1-2)[GalNAc(a1-3)]Gal(b1-4)Glc
# Summary of the method: as §1
# [30] = target: Fuc(a1-2)[GalNAc(a1-3)]Gal(b1-4)GlcNAc
# Summary of the method: as §1
# [31] = target: Fuc(a1-2)[GalNAc(a1-3)]Gal(b1-4)GlcNAc(b1-2)Man(a1-3)[Fuc(a1-2)[GalNAc(a1-3)]Gal(b1-4)GlcNAc(b1-2)Man(a1-6)]Man(b1-4)GlcNAc(b1-4)GlcNAc
# Summary of the method: as §1
# [32] = target: Fuc(a1-2)[GalNAc(a1-3)]Gal(b1-4)GlcNAc(b1-2)Man(a1-3)[Fuc(a1-2)[GalNAc(a1-3)]Gal(b1-4)GlcNAc(b1-2)Man(a1-6)]Man(b1-4)GlcNAc(b1-4)[Fuc(a1-6)]GlcNAc
# Summary of the method: as §1
# [33] = target: Fuc(a1-2)[GalNAc(a1-3)]Gal(b1-4)GlcNAc(b1-3)Gal(b1-4)GlcNAc
# Summary of the method: as §1
# [34] = target: Fuc(a1-2)[GalNAc(a1-3)]Gal(b1-4)GlcNAc(b1-3)Gal(b1-4)GlcNAc(b1-3)Gal(b1-4)GlcNAc
# Summary of the method: as §1
# [35] = target: Fuc(a1-2)[GalNAc(a1-3)]Gal(b1-4)GlcNAc(b1-3)GalNAc
# Summary of the method: as §1
binder,measurement,setting,value
B1,glycan array binding signal (z-score),[1],4.58
same,glycan array binding signal (z-score),[2],-0.042
same,glycan array binding signal (z-score),[3],0.133
same,glycan array binding signal (z-score),[4],3.88
same,glycan array binding signal (z-score),[5],4.31
same,glycan array binding signal (z-score),[6],-0.346
same,glycan array binding signal (z-score),Fuc(a1-2)Gal6S(b1-4)Glc,3.41
same,glycan array binding signal (z-score),[7],2.72
same,glycan array binding signal (z-score),[8],2.03
same,glycan array binding signal (z-score),Fuc(a1-2)[Gal(a1-3)]Gal,2.2
same,glycan array binding signal (z-score),[9],-0.362
same,glycan array binding signal (z-score),[10],-0.378
same,glycan array binding signal (z-score),[11],-0.379
same,glycan array binding signal (z-score),[12],-0.031
same,glycan array binding signal (z-score),[13],-0.382
same,glycan array binding signal (z-score),[14],-0.359
same,glycan array binding signal (z-score),[15],-0.352
same,glycan array binding signal (z-score),[16],-0.36
same,glycan array binding signal (z-score),[17],0.309
same,glycan array binding signal (z-score),[18],-0.378
same,glycan array binding signal (z-score),[19],0.164
same,glycan array binding signal (z-score),[20],-0.13
same,glycan array binding signal (z-score),[21],-0.31
same,glycan array binding signal (z-score),[22],2.51
same,glycan array binding signal (z-score),[23],1.73
same,glycan array binding signal (z-score),[24],-0.388
same,glycan array binding signal (z-score),[25],-0.384
same,glycan array binding signal (z-score),[26],-0.374
same,glycan array binding signal (z-score),[27],0.059
same,glycan array binding signal (z-score),[28],-0.38
same,glycan array binding signal (z-score),[29],-0.369
same,glycan array binding signal (z-score),[30],-0.359
same,glycan array binding signal (z-score),[31],-0.338
same,glycan array binding signal (z-score),[32],0.018
same,glycan array binding signal (z-score),[33],-0.349
same,glycan array binding signal (z-score),[34],-0.378
same,glycan array binding signal (z-score),[35],-0.39

# From the supplement of paper PMC8728848
